Measured values from PubChem BioAssay AID504332 (National Center for Advancing Translational Sciences (NCATS), 2011).
About 31,000 (8.9%) of roughly 350,000 compounds were called active. Inconclusive means that the source gave no clear call. Such entries were picked first, then a sample of the others. Calls follow the shape of the dose curve; as a rule, active = well fitted inhibition curve with a large enough effect; inconclusive = small, poorly fitted or top-dose-only effect; inactive = no such curve, though single readings can be large or run the other way. A potency beside an inconclusive call is a rough fit, not a confirmed value.

target: Histone-lysine N-methyltransferase EHMT2 (Homo sapiens) (UniProt Q96KQ7); test: qHTS Assay for Inhibitors of Histone Lysine Methyltransferase G9a; settings: G9a H3K9 monomethylation, AlphaScreen, 2 h; activity, negative = inhibition: at 59 µM (top of the series) unless noted; also: nearly all actives have a fitted effect of over 75% in size
UniProt Q96KQ7, sequence (Q96KQ7 whole entry, looked up): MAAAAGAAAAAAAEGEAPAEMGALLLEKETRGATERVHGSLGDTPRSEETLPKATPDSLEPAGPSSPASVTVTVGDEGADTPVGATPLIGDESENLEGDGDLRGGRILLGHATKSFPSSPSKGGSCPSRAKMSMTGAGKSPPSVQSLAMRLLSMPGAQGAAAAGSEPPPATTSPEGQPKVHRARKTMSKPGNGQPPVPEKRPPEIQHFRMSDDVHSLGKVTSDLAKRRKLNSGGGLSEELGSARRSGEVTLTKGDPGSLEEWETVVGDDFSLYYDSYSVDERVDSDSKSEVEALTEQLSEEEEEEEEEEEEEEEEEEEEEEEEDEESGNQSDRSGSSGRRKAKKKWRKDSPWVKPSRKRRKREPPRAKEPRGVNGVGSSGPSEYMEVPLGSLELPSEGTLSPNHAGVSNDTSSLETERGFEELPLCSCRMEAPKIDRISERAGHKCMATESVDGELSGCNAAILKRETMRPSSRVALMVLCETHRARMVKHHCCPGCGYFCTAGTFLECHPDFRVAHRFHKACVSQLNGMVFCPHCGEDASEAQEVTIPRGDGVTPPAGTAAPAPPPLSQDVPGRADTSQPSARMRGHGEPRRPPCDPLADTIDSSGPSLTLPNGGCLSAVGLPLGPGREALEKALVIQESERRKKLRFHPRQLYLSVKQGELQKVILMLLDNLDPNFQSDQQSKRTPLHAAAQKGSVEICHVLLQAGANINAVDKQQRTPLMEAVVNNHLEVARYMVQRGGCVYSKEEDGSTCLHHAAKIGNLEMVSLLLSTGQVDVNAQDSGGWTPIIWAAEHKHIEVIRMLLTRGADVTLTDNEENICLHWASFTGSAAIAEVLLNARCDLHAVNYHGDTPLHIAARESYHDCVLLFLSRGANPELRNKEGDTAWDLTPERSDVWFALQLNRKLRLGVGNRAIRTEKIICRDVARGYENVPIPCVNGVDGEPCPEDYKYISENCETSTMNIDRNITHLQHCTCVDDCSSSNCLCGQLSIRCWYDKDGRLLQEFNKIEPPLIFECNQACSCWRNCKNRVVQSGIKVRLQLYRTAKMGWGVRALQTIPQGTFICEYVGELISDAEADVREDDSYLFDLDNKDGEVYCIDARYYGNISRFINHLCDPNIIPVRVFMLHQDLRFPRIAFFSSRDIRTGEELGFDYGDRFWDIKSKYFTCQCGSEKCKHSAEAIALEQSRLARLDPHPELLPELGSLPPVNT
In short: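 Enzyme 20 nM + cpd, 15 min RT; add b-H3K9 pep 500 nM / SAM 20 uM; 2 h RT; anti-H3K9me1 Ab 0.5 ug/mL + SA donor / anti-rabbit acceptor beads 20 ug/mL each, 10 min; AlphaScreen read.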
% is scaled to controls: 0 for no effect and ±100 for the full control effect; potency is read from the fitted curve at half-maximal effect; tags tell the direction and shape of the fitted curve.

SMILES | Potency | activity, negative = inhibition
C=CCc1ccc(OCCCCN2CC(C)OC(C)C2)c(OC)c1 (stereo not given) | active: 3.16 µM | 
O=C(Cc1ccccc1)NC1c2ccccc2-c2ccccc21 | inconclusive: 39.8 µM [inhibitor, single point] | 
O=C1CN(c2nc3ccccc3n3cnnc23)CC(=O)N1CCc1ccccc1 | active: 79.4 µM | 
Cc1cccc(-c2sc(Nc3ccccc3)n[n+]2-c2ccc(F)cc2)c1 | active: 35.5 µM | 
Cc1cc2oc3c(c(=O)c2cc1C)C(c1cccc(Br)c1)N(Cc1ccco1)C3=O (stereo not given) | inconclusive: 89.1 µM [inhibitor, partial curve, poor fit] | 
O=C(Cc1ccccc1)NCc1n[nH]c(=S)n1-c1ccccc1 | inconclusive: 79.4 µM [inhibitor, partial curve, poor fit] | 
CCN(CCCNC(=O)CN1N=C(c2ccc(C)cc2)CCC1=O)c1ccccc1 | active: 10 µM | 
CC(c1ccccc1)N1CCc2[nH]c(=S)[nH]c(=O)c2C1 (stereo not given) | active: 39.8 µM | 
O=C(CSc1nc2ccccc2c(=O)n1-c1ccc(F)cc1F)c1c[nH]c2ccccc12 |  | inactive: -12.6%
O=C(CS(=O)(=O)c1ccccc1)Nc1ccc(S(=O)(=O)Nc2ncccn2)cc1 | inconclusive: 79.4 µM [inhibitor, partial curve, poor fit] | 
COc1cc(NS(=O)(=O)c2ccc(Nc3nc(-c4ccccc4)cs3)cc2)nc(OC)n1 | inconclusive: 22.4 µM [inhibitor, single point] | 
COCCNC(=O)/C(C#N)=C/c1cc(Br)c(O)c(OC)c1 | active: 14.1 µM | 
CC1=C(C(=O)OC(C)C)C(c2cccs2)N2C(=O)C(C)SC2=N1 (stereo not given) |  | inactive: 2.32% [at 102 µM]
COc1cc(/C=N/NC(=O)C(=O)NCc2ccco2)ccc1O | inconclusive: 79.4 µM [inhibitor, single point] | 
Cc1ccc(-c2c3c(=O)n(C)c(=O)n(C)c3cn2Cc2ccccn2)cc1 | inconclusive: 2.51 µM [inhibitor, partial curve, poor fit] | 
CCCN1CCN(C(=S)Nc2ccccc2C(F)(F)F)CC1 | active: 39.8 µM | 
CCc1ccc(-n2c(CSc3nnnn3-c3ccccc3)nc3ccccc3c2=O)cc1 | inconclusive: 25.1 µM [inhibitor, partial curve, poor fit] | 
c1ccc2c(c1)oc1c(N3CCOCC3)ncnc12 | inconclusive: 79.4 µM [inhibitor, single point] | 
Cc1ccc(/C=c2\s/c(=C(/C#N)C(=O)N3CCCC3)n(Cc3ccco3)c2=O)s1 | inconclusive: 3.55 µM [inhibitor, partial curve, poor fit] | 
CCCCN(CC)C(=O)Cn1cc2c(n1)-c1c(oc(C(=O)N3CCCC3)c1C)CC2 | inconclusive: 28.2 µM [inhibitor, single point] | 
O=c1[nH]c2cnccc2n1-c1ccccc1 |  | inactive: 23%
O=C(c1cc(N2C(=O)C3C4CCC(C4)C3C2=O)ccc1Cl)N1CCN(c2ccc(F)cc2)CC1 (stereo not given) | inconclusive: 79.4 µM [inhibitor, single point] | 
Cc1ccc(CNC(=O)c2cn(C)c3ccc(S(=O)(=O)N4CCC(C)CC4)cc3c2=O)cc1 | inconclusive: 28.2 µM [inhibitor, partial curve, poor fit] | 
COC(=O)c1[nH]c2cccc(OC)c2c1NC(=O)CN1CCN(c2cccc(OC)c2)C(C)C1 (stereo not given) | inconclusive: 39.8 µM [inhibitor, single point] | 

SMILES | Potency | activity, negative = inhibition
CSc1nc(NCc2ccco2)c2ccccc2n1 | inconclusive: 89.1 µM [inhibitor, single point] | 
CC(C)(C)OC(=O)NCc1ccc(CNC(=O)c2[nH]cnc2C(=O)N[C@@H](Cc2ccccc2)C(=O)OCc2ccccc2)cc1 |  | inactive: 16.7% [at 102 µM]
CC(C)c1nc(CNC(=O)CC2C(=O)NCCN2Cc2cccc(F)c2F)cs1 (stereo not given) | inconclusive: 89.1 µM [inhibitor, single point] | 
CC(=O)Nc1ccc(NC(=O)C(C)OC(=O)COc2ccc(Nc3ccccc3)cc2)cc1 (stereo not given) | inconclusive: 8.91 µM [inhibitor, single point] | 
CC(NC(=O)CSc1nc2c(cc1C#N)CN(C)CC2)c1ccccc1 (stereo not given) | inconclusive: 28.2 µM [inhibitor, single point] | 
COc1ccc(C2(CNC(=O)c3ccc(OC)c([N+](=O)[O-])c3)CCOCC2)cc1OC |  | inactive: -6.67% [at 102 µM]
Cc1ccc(C(=O)CSc2nnc(-c3ccco3)n2CC2CCCO2)cc1 (stereo not given) | active: 11.2 µM | 
Cc1cc2oc(=O)cc(CN3CCCCC3)c2cc1O |  | inactive: -15.3% [at 102 µM]
CC(=O)c1ccc(S(=O)(=O)Nc2cccc(-c3ccc(N4CCCC4)nn3)c2)cc1 |  | inactive: 8.33%
CCOc1ccc(CC(=O)NCc2ccc3c(c2)CCN3C(=O)c2ccc(F)cc2)cc1OCC |  | inactive: 6.21%
COc1ccc(N2CCN(c3nc(NCCO)nc(N4CCOCC4)n3)CC2)cc1 | inconclusive: 3.98 µM [inhibitor, single point] | 
CS(=O)(=O)c1cccc(-c2nnc(NC(=O)c3ccc4ncsc4c3)o2)c1 | inconclusive: 22.4 µM [inhibitor, single point] | 
Cc1ccc(CCNC(=O)c2cc(S(=O)(=O)N3CCOCC3)cn2C)cc1 |  | inactive: 2.95% [at 102 µM]
CC(C)COc1ccc(-c2nnn(CC(=O)N3CCCC3)n2)cc1 |  | inactive: -6.66%
Cc1cccc(C)c1OCC(=O)NNC(=S)NC(=O)C1CC1 | active: 20 µM | 
CC1CCCN(C(=O)CNC(=O)Cn2ccc3ccccc3c2=O)C1 (stereo not given) | inconclusive: 70.8 µM [inhibitor, single point] | 
CCOc1ccc(C(=O)Nc2cc(-c3nc4ccccc4[nH]3)ccc2Cl)cc1[N+](=O)[O-] | inconclusive: 39.8 µM [inhibitor, single point] | 
COc1ccc(OC)c(S(=O)(=O)Nc2ccccc2C(=O)O)c1 | inconclusive: 70.8 µM [inhibitor, single point] | 
Cc1ccccc1CNC(=O)C(=O)NCC1OCCCN1S(=O)(=O)c1ccc(F)cc1C (stereo not given) | inconclusive: 31.6 µM [inhibitor, partial curve, poor fit] | 
CC(=O)c1ccc(NC(=O)c2nn(C)c3c2COc2ccccc2-3)cc1 | inconclusive: 31.6 µM [inhibitor, single point] | 
CCCN1CCN(CCCNC(=O)c2ccc3c(Cl)c4c(nc3c2)CCCC4)CC1 |  | inactive: -5.64% [at 102 µM]
COc1ccccc1/C=C/C=N/n1c(C2CCCCC2)n[nH]c1=S | active: 3.16 µM | 
COc1ccccc1N=Nc1[nH]c2ccc(C)cc2c1O | active: 11.2 µM | 
O=C(NNS(=O)(=O)c1ccc(Cl)cc1)c1cccs1 |  | inactive: 4.37% [at 12.7 µM]

SMILES | Potency | activity, negative = inhibition
Cc1noc(NS(=O)(=O)c2ccc(NC(=O)/C=C/c3ccc(C(C)C)cc3)cc2)c1C | active: 44.7 µM | 
CC1(c2cc([N+](=O)[O-])cc([N+](=O)[O-])c2)CC(C)(C)N(C(=O)c2ccccc2)c2ccccc21 (stereo not given) | inconclusive: 8.91 µM [inhibitor, full curve] | 
COc1ccccc1NC(=O)C1=C(C)Nc2nc(SCc3ccccc3)nn2C1c1cccs1 (stereo not given) | inconclusive: 10 µM [inhibitor, partial curve, poor fit] | 
Cc1ccc(NC(=O)C2CCN(S(=O)(=O)c3ccc4c(c3)OCCO4)CC2)nc1 |  | inactive: 26% [at 0.501 µM]
COC(=O)COc1c(Cl)cc(C(c2c(C)[nH][nH]c2=O)c2c(C)[nH][nH]c2=O)cc1OC | inconclusive: 89.1 µM [inhibitor, single point] | 
O=c1c2ccccc2nc(-c2ccc(Cl)cc2)n1CCCCOc1ccc(F)cc1 |  | inactive: 36.2%
COc1ccc2c(C(=O)c3ccc(C)cc3)n(CCC(N)=O)[n+]([O-])c2c1 | inconclusive: 89.1 µM [inhibitor, single point] | 
Cc1c(O)ccc(C(=O)CN2CCN(c3ccc(F)cc3)CC2)c1O | active: 44.7 µM | 
COc1ccc(NC(=O)CN(C)C(=O)c2c(-c3c(F)cccc3Cl)noc2C)cc1 | inconclusive: 79.4 µM [inhibitor, single point] | 
CCCNC(=S)N(Cc1ccccc1)Cc1nc2ccccc2c(=O)[nH]1 | active: 7.08 µM | 
CC(Oc1ccccc1F)C(=O)N1CCC(c2nc3ccccc3o2)CC1 (stereo not given) |  | inactive: 5.72%
CCN(c1ccccc1)S(=O)(=O)c1ccc(Cl)c(NC(=O)CN2CCCCCC2)c1 |  | inactive: -109%
CCOCC(=O)Nc1cccc(Br)c1 |  | inactive: 20.7% [at 12.7 µM]
N#C/C(=N\Nc1ccccc1F)C(=N)N1CCCCC1 | inconclusive: 15.8 µM [inhibitor, partial curve, poor fit] | 
CCC1CCCCN1CCCNC(=O)c1ccc2c(c1)c(C)c(C)n2C (stereo not given) | inconclusive: 89.1 µM [inhibitor, single point] | 
COc1ccc(OC)c(-n2c(SCC(=O)Nc3cc(C)on3)nnc2-c2c[nH]c3ccccc23)c1 | inconclusive: 35.5 µM [inhibitor, partial curve, poor fit] | 
CCOC(=O)c1ccccc1NC(=O)CCc1c(C)nc2c(c1C)c(=O)n(C)c(=O)n2C |  | inactive: 4.26%
O=C(Nc1cccc(-c2nc3ccccc3[nH]2)c1)c1cccc(NC(=O)c2ccco2)c1 |  | inconclusive: -60.5% [inhibitor]
O=C(CCNC(=O)c1ccc(Br)cc1)Nc1cccc(S(=O)(=O)N2CCCC2)c1 | active: 44.7 µM | 
Cc1ccc(N=Nc2c(N)[nH]n3c(=O)cc(-c4ccccc4)nc23)cc1 | inconclusive: 89.1 µM [inhibitor, single point] | 
Cc1[nH]n(C(N)=S)c(=O)c1N=Nc1ccc([N+](=O)[O-])cc1Cl | active: 25.1 µM | 
CCOC(=O)C1=C(COC(=O)Cc2c(F)cccc2Cl)NC(=O)NC1C (stereo not given) | inconclusive: 35.5 µM [inhibitor, single point] | 
